Measurements taken from the supplement of paper PMC3334620.
In all, about 33,000 sequences were measured (“E-score (-0.5 to 0.5)”: median about -0.012, highest 2% from about 0.29 on). Some of the results follow.

target: T1, Ybr033w (UniProt P38073); test: PBM E-score (8-mer binding enrichment) (E-score (-0.5 to 0.5)); higher = stronger / more preferred TF binding; most listed sequences are background and not binding sites; conditions: protein concentration: 200 nM; construct: GST-full length
T1 sequence: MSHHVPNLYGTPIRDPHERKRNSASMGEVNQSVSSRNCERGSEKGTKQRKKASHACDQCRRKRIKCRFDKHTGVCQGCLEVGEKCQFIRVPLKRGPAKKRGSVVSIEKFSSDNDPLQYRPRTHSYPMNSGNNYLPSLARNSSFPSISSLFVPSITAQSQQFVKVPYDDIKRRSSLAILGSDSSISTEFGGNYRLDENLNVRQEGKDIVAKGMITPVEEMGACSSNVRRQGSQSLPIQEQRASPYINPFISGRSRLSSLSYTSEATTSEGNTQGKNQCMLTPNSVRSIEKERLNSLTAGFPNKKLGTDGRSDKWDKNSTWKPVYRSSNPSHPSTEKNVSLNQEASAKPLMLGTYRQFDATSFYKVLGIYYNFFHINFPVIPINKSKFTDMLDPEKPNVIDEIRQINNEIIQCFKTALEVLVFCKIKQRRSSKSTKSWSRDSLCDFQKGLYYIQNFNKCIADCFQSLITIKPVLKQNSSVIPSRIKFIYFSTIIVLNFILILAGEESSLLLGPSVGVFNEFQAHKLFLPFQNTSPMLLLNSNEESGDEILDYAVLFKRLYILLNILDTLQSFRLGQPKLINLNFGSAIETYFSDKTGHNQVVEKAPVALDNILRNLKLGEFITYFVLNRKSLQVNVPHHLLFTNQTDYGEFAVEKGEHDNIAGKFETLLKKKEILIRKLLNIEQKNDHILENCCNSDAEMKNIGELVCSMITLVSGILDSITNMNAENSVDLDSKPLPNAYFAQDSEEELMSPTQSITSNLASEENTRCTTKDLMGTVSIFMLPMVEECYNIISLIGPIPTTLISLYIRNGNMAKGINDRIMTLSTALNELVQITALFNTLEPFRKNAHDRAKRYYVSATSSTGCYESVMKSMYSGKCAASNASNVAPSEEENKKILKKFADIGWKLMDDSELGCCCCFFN
Description: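 Universal 'all 10-mer' protein binding microarrays (Agilent AMADID 015681) probed with GST-tagged S. cerevisiae TFs (full-length or DBD) made by in vitro transcription/translation (PURExpress), about 100-200 nM. Bound TF was detected with fluorescent anti-GST. Each ungapped 8-mer (which stands for itself and its reverse complement) is scored by the PBM enrichment score (E-score), a modified Wilcoxon-Mann-Whitney statistic from -0.5 to +0.5, computed with the Universal PBM Analysis Suite. Scale: above 0.35 generally sequence-specific binding.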

| Sequence | PBM E-score |
| --- | --- |
| CCGAGTGC | -0.00553 |
| CCCTTACA | 0.0257 |
| CGTATACA | 0.168 |
| CACGAATC | 0.137 |
| ATCGTTCG | -0.0743 |
| GAGCCCTA | -0.201 |
| ATTAGTAA | 0.253 |
| GTTCTTGA | 0.0638 |
| GCGTCGAC | -0.0133 |
| CATCCATC | -0.106 |
| CTACATTC | 0.0884 |
| GCCCGTCA | -0.327 |
| GGAAAACC | -0.11 |
| CTATTCCC | -0.043 |
| ATTGGGAA | 0.198 |
| GCGGCCCA | -0.23 |
| GACGTTCA | -0.23 |
| TGCTTTAA | 0.107 |
| CAGCGCGC | 0.0278 |
| AACGACTC | -0.219 |
| ACCGGCAG | -0.338 |
| CTGGAAAC | -0.0702 |
| GCTACACA | -0.191 |
| AATGAATC | 0.0507 |
| CATGAGTC | 0.0171 |

| Sequence | PBM E-score |
| --- | --- |
| TAGAGCCA | -0.174 |
| CACTTCTG | 0.0004 |
| GCTACGAC | -0.267 |
| AGCTGCTA | 0.11 |
| CACTAATC | 0.167 |
| CATTTTTA | 0.0686 |
| GAGAATCA | 0.0617 |
| TATCCGCA | 0.306 |
| GATGTCAA | 0.0645 |
| CATGGGGA | -0.0852 |
| ATTCCAGA | 0.186 |
| AGTGCGGG | -0.0831 |
| CATGCTCC | -0.365 |
| AGTACTAG | 0.113 |
| TGGAAAAA | 0.458 |
| CGACCAAG | -0.0195 |
| AGAACAGA | 0.0876 |
| CTTTTGAC | 0.0689 |
| CTCTTCAG | -0.0572 |
| GAAGTGGC | -0.0921 |
| CGTTTGTA | 0.167 |
| GCCGTTTA | 0.0411 |
| CCTACGGA | -0.0441 |
| CCGACATC | 0.00453 |
| ATGTTCAC | -0.063 |

| Sequence | PBM E-score |
| --- | --- |
| AGGCGCTG | 0.0389 |
| AGACCTCC | -0.374 |
| CAAGCATC | -0.0369 |
| ATCTGGTA | 0.0021 |
| GTAAGTTA | 0.0848 |
| ACGTACGC | -0.0919 |
| CGTTATTA | 0.149 |
| ACAAGGAC | -0.161 |
| CTCGTCTC | -0.049 |
| AGGGAATA | 0.248 |
| ATGCATGG | -0.0101 |
| TATATATA | 0.28 |
| CACGATCG | -0.0361 |
| AATGGGAC | -0.234 |
| CAGGTGCA | -0.066 |
| GTGAGCAC | -0.0679 |
| CAAATCGG | -0.0226 |
| CAACATAA | 0.262 |
| AGCGCCCC | -0.365 |
| CTTTGTTA | 0.264 |
| CACGCTCG | -0.105 |
| AGTGCAAA | 0.162 |
| ACCCGTCA | -0.184 |
| CGGGACCC | -0.423 |
| ATTATGAC | 0.168 |

| Sequence | PBM E-score |
| --- | --- |
| CTTGAGGA | 0.0251 |
| CGGTGAAC | 0.00975 |
| CGATATAG | -0.00624 |
| ACGTCACA | 0.0349 |
| CACGTCTG | -0.0385 |
| CAGCTAGG | -0.231 |
| GCGGAACA | 0.265 |
| GGGCGACC | -0.291 |
| AAATACAC | 0.232 |
| CAACTGCA | 0.103 |
| CGATAAAA | 0.14 |
| ACCCTTAC | 0.0161 |
| CCTCAGGC | -0.0814 |
| AACCTTGC | -0.00024 |
| CTTTCAAC | 0.0503 |
| CGGACTCC | -0.0898 |
| AGGGTTAG | 0.051 |
| ACATATGA | 0.125 |
| GTCGTCCA | -0.0713 |
| AAGACCGG | -0.257 |
| CCACCCCG | -0.144 |
| CCTCAAAC | -0.00888 |
| AGGTCCGA | -0.0667 |
| CTAGCTCC | -0.16 |
| ACTCTTCT | 0.0225 |

| Sequence | PBM E-score |
| --- | --- |
| GAAGAGGA | -0.251 |
| AATGTCTC | -0.00048 |
| ATTCTAAG | 0.0867 |
| CCCTCCCC | -0.135 |
| AACAATGA | 0.203 |
| TCATTGCA | 0.0987 |
| AGAGTAAT | 0.313 |
| GAACTCGC | 0.0288 |
| TCTCAACA | 0.0911 |
| CCCGCGCC | -0.285 |
| AGTAGCCG | -0.0299 |
| ACTTCCAG | 0.0745 |
| AGAACGTA | 0.0159 |
| AATTAGCG | 0.161 |
| CAATGCGA | 0.0751 |
| CGCCCAAC | -0.216 |
| ACCGCTGG | -0.0154 |
| AGGGACAG | -0.321 |
| TTACCTAA | 0.156 |
| GGGCGTAC | 0.00123 |
| GAATATTA | 0.315 |
| CCAATGCG | -0.0114 |
| CTGCGGTA | -0.0984 |
| ACCATTTA | 0.204 |
| GTTGAAGA | 0.0264 |

| Sequence | PBM E-score |
| --- | --- |
| CAGGGATA | -0.00813 |
| TTCACAAA | 0.187 |
| GACCAAGA | 0.0606 |
| CAGACGTA | -0.115 |
| AAACCGCC | 0.0737 |
| CCCAGCTA | -0.165 |
| GCTCATCC | -0.0162 |
| ACGCCCCC | -0.229 |
| CGCACGTA | -0.174 |
| GAGATTGA | 0.0919 |
| ACCTGGAA | 0.243 |
| ATGCCGCA | 0.0927 |
| CATTCCCA | 0.0691 |
| AGACGACA | 0.119 |
| ATATCTGA | 0.122 |
| ACCATAAG | -0.0119 |
| GAGGCAAC | -0.151 |
| ACGTCCAA | -0.00884 |
| GTTGGTAA | 0.176 |
| CGCTGCTA | -0.126 |
| TCCACCGA | 0.00065 |
| AAGGGATG | -0.0361 |
| CGTGGAGA | -0.15 |
| ATGAGCGG | -0.151 |
| GGCTTAAC | -0.00155 |

| Sequence | PBM E-score |
| --- | --- |
| ACGATTCG | 0.0605 |
| CCCAGGTA | -0.225 |
| CAATGGGC | -0.139 |
| CCCCTCGA | -0.0714 |
| GCTTATAC | -0.0477 |
| TCTGGAAA | 0.259 |
| AGAGAGTA | 0.00534 |
| AGTGCCTC | -0.312 |
| CGCGATAG | 0.0293 |
| ATCGTACG | -0.0517 |
| AACAGCCC | -0.165 |
| GAGAACTC | -0.0547 |
| AAACGCAC | -0.0177 |
| GACACTAA | -0.036 |
| AAGATCAA | 0.26 |
| ATCTATGC | 0.22 |
| TCTCGTCA | 0.0524 |
| CCGACTAA | -0.0217 |
| GATCTCAC | 0.00113 |
| AATTAATC | 0.341 |
| GTTGCAAA | 0.231 |
| AATAGCCA | 0.0895 |
